Measurements: paper PMC11613296, “Post-Translational Modifications Control Phase Transitions of Tau” (ACS Central Science, 2024)

B1: Tau([…]) AcK369 (peptide)
chain: not shown
modifications: N-acetyllysine at 369
notes: microtubule-associated protein Tau, […]; numbers count on: 2N4R Tau; source: synthetic: chemical protein synthesis (SPPS of three segments, DSL and NCL), HPLC purified
B2: Tau([…]) AcK353 (peptide)
chain: not shown
modifications: N-acetyllysine at 353
notes: as for B1
B3: Tau([…]) pY310 (peptide)
chain: not shown
modifications: phosphotyrosine at 310
notes: as for B1
B4: Tau([…]) P301S (peptide)
chain: not shown
notes: microtubule-associated protein Tau, […], with the mutation P301S linked to inherited FTDP-17 and CBD; numbers count on: 2N4R Tau; source: synthetic: chemical protein synthesis (SPPS of three segments, DSL and NCL), HPLC purified
B5: Tau([…]) AcK317 (peptide)
chain: not shown
modifications: N-acetyllysine at 317
notes: as for B1
B6: Tau([…]) pS356 (peptide)
chain: not shown
modifications: phosphoserine at 356
notes: as for B1
B7: Tau([…]), unmodified (WT) (peptide)
chain: not shown
notes: microtubule-associated protein Tau, […], free N-terminal cysteine and C-terminal carboxylic acid; numbers count on: 2N4R Tau; peptide characterisation is in the Supporting Information; also called unmodified Tau([…]); source: synthetic: chemical protein synthesis (SPPS of three segments, DSL and NCL), HPLC purified; SEC before assembly
B8: Tau([…]) AcK311 (peptide)
chain: not shown
modifications: N-acetyllysine at 311
notes: as for B1
B9: Tau([…]) pS352 (peptide)
chain: not shown
modifications: phosphoserine at 352
notes: as for B1

Molecular target: T1, 2N4R Tau(2–441) (human, UniProt P10636-8 2-441)
T1 construct: microtubule-associated protein Tau, 2N4R isoform, residues 2-441; numbers count on: 2N4R Tau; the Supporting Information may tell; also called recombinant 2N4R Tau; source: recombinant
Assay: ELISA; Tau(291–391) proteoforms immobilised on a PVC plate, recombinant 2N4R Tau(2–441) in solution, detected with Tau-13 mAb (residues 15–25) and anti-mouse IgG HRP; Langmuir binding curves, apparent KD, three replicates
Settings: both partners purified

Sequence of 2N4R Tau(2–441) (P10636 other isoform, or with tags, fused parts or gaps): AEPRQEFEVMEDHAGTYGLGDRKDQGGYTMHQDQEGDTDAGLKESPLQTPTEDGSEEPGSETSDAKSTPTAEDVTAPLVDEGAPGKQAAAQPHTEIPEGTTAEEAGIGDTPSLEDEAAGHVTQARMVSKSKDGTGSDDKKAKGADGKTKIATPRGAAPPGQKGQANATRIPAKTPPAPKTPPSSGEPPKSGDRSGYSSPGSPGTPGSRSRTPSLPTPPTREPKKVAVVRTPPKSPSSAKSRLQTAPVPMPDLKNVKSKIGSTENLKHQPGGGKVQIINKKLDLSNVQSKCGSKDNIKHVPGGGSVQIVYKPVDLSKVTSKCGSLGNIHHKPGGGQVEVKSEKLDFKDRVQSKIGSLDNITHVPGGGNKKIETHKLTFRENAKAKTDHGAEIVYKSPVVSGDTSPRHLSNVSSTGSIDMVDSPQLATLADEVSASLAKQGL

Row | binding result | Binder
1 | binds | B1
2 | binds | B2
3 | binds | B3
4 | binds | B4
5 | binds | B5
6 | binds | B6
7 | binds | B7
8 | binds | B8
9 | binds | B9

Molecular target: the molecule itself
Assay: cryo-EM structure; filaments of Tau(291–391) WT assembled without cofactor: 5 mg/mL, 10 mM phosphate buffer pH 7.2, 100 mM MgCl2, 10 mM DTT, 200 rpm shaking, 37 °C, 24 h
Settings: not given

Row | Binder | binding result
10 | B7 | binds
